# Source: the supplement of paper PMC11417369
# This is one part of the list.
# Tested on: PfSIP2 AP2 domain 1 (GST-tagged)
# Assay: gcPBM binding intensity (ln(normalized median fluorescence intensity)); higher = stronger DNA binding
# How it was run: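 Binding intensity is the highest Masliner-normalised natural-log median intensity over replicate spots in either probe orientation. To obtain it, GST-tagged P. falciparum DNA-binding domains made in E. coli were incubated for 1 h on an Agilent 4 × 180k array of primer-extended double-stranded 36-bp intergenic genomic probes plus negative controls. Detection used Alexa488 anti-GST antibody with scanning at 488 nm.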
row,Sequence,gcPBM binding intensity (ln)
1,AAGAAAAATGTGTTTTTTTTTTTTTTTTTTTTCAAT [TGCATGCA_negctrl_site404],6.56
2,CTTTTTTTTTTAAATAGTACTTTCTCGTATACTCAT [XGTACX_site1842],6.87
3,TGTGAAATAAAATTTATACACACTTGCTAAATGATC [CACACA_site181],6.75
4,TTTTTTTATTTTTGTTGTACTTATAATTCTGTAAAA [XGTACX_site7344],6.97
5,TATAAATATAAATACACACACACACGCCAAAGCGTA [CACACA_site6181],6.82
6,TACAAATTAATATGTACACACAAATATAAATATGTA [CACACA_site7016],7.07
7,TACGTTATATACAACTGTACTTGGATAATTATTAAC [XGTACX_site5614],7.13
8,AAGTTTTTTTCTTTTTTTCTCTCTTTTTTTTTTTTT [XGTACX_negctrl_site613],6.83
9,TTTTCTTTTTTGAACTGTACGCGTAAATTTAAAAAG [XGTACX_site882],7.73
10,TTTTTTATTTATTGTTATACATCTTACTACTTATAA [GTGCAC_negctrl_site381],7.18
11,AATATATTTATATATAGTACTTTTATAATATCGTTT [XGTACX_site6658],6.91
12,AATACACATAATACATGTACTCACATTGTTATAACA [XGTACX_site4129],7.17
13,GATATGATTAACTTATGTTATTCTTGATGATTACGT [CACACA_negctrl_site354],6.94
14,AAATATTTTTTAATGTGTACATAGAACATATATATA [XGTACX_site3136],7.45
15,ATAATATATATATTATGTACATATAAATTTTTTTTT [XGTACX_site5826],7.01
16,TATATACCTATATATACACACAAATACATAAGCTTC [CACACA_site1369],6.97
17,TTTTTTAAAAAACAAACACACACGTAGAAAAAAAAA [CACACA_site826],7.11
18,TAATTATATGGATACACACACATACATTTACATAAC [CACACA_site5744],7.13
19,TATAACTATAAAAGGAGTACTATATATATATATATA [XGTACX_site1388],9.29
20,ACTTATTTATTTTTAGTGCATTTAGTTTTATTTTAT,9.27
21,AGTATACACAAACACACACACACAAAAAAAAAAAAA [CACACA_site8036],7.1
22,AATAGTACAAAAAAAAAAAAAAAAAAAAAAAAAAAA [CACACA_negctrl_site1376],7.26

row,Sequence,gcPBM binding intensity (ln)
1,TCTACAAAATTATCATGTACATATTATTATAATTAT [XGTACX_site6585],7.28
2,TAAAAAGAAAAAAAGAGTACAAACAAAATAATAATT [XGTACX_site6071],6.83
3,TATTTGCAATGCAAATGTACATGAATTTTTTTAATG [XGTACX_site7474],6.78
4,ACCTAATATTATTAAACATGCACATTTGCATAAATA [TGCATGCA_site870],8.28
5,AAATAATTCAAAAAAACACACAAATTACAAAATAAA [CACACA_site269],6.95
6,CAAAATGAAAGGAAAAGTACATTTAAATGAATAAAT [XGTACX_site8241],6.98
7,GTATAATATTCATATTCACACATTAAAATATATTTA [CACACA_site4879],6.99
8,TAAAAATATATTATATGTACGTATAACAATGTATGA [XGTACX_site8606],7.23
9,TACACCTGCACGATTGCACACAAATATGTTTTGAAG [CACACA_site8656],7.84
10,TTATTATTAAAACACACACACAAAAAAAAAAAAAAA [CACACA_site1480],7.43
11,AAAAAAAAAAAAAAAACACACATGTATAATATAATA [CACACA_site2209],7.52
12,TATAGATGTGGTTTATGTACATACTATAAAAAATCA [XGTACX_site1400],7.19
13,TTATATATATATATATAATATATATATATTTAAATA [XGTACX_negctrl_site453],7.42
14,AAGGACAACAAACAAACACACACAAAAAAAAAATAA [CACACA_site9263],7.04
15,AAGAATATAATCTTCACACATATATATATATATATA [CACACA_site5927],9.43
16,TATATATCTTTATGCACACACAAAGAAAATTTTCCT [CACACA_site7366],7.4
17,ATTAATTTAATTTGAATTATTTTATTATATTATTAT [XGTACX_negctrl_site10],6.62
18,GTTTGAATATATCAGGTGCATTTATAATTCATATGA,10.5
19,TAATTAAATATTTCAGTGCATTATTTTATGATCCAT [GTGCAC_site9456],7.94
20,AGATGAACTAAAAAGGTGCTAAATATGTGACCACTG [GTGCAC_site9406],8.42
21,ATTTAGAATGTTCCTACACACCAAATTTAAGTGTGC [CACACA_site7161],6.83
22,TACATACACAGACACACACACATATAAATATAAATA [CACACA_site7641],7.3

row,Sequence,gcPBM binding intensity (ln)
1,TTTTTTTTAGTATGAACACACATATAGATTATAAAA [CACACA_site7391],7.04
2,ATATTATAGATATACACACACACATGCATGCACATA [CACACA_site6203],8.64
3,ATAAGAAGAAGAAAAACACACATATGTAAATATATA [CACACA_site3138],6.82
4,AAATTAGACTATAATACACACATAAAAAAAAAAAAA [CACACA_site6155],6.82
5,AGATATCTTGTGAAATAAAAAAAATAATTGCTTATA [CACACA_negctrl_site798],6.68
6,ATATTATATTATTAATGTACATATATATAATTTTAA [XGTACX_site4974],7.05
7,AAGGCAAACAAACACACACACATATATACCTATATA [CACACA_site5203],7.15
8,TCTTATCCATATATTACACACTATATATAGAAATTA [CACACA_site291],7.19
9,AGAAATGAAATCCAAAAACGAGGAACCAATAACGCA [CACACA_negctrl_site1758],7
10,TCCTTCGAAACTAAAATTCATTTAAAATATTGATAT [CACACA_negctrl_site369],6.99
11,AAAGAAAAAAAAATTACACACATATATTATAGATAT [CACACA_site7495],6.88
12,TACATACATACATACACACACACATATATATATATA [CACACA_site42],9.4
13,TAGGTCCTCATTTTATGTACATAAAGAAATATGATT [XGTACX_site4138],6.91
14,TATTTATAGATATATACACACATATACATATTGTTT [CACACA_site7611],7.02
15,ATATAAACATTTAGTAATCCATATAGGTACTACTGA [CACACA_negctrl_site1249],6.85
16,AAAAAAAATATATAAACACACATATTTATATACGCA [CACACA_site1631],6.75
17,ATATATGCTAATATATGTACTGATTATATCTCTTCA [XGTACX_site7156],6.83
18,TAGTATTAAATATATACACACATATATACATATAGA [CACACA_site2154],6.99
19,TTAATTTTTTTTTCTTGTACACACTATTTTATAATT [XGTACX_site8783],7.19
20,GCAGCAGCATTTTCAGTGCATTATTATATTGTTCAT [GTGCAC_site9926],7.98
21,GTAATAAAATGACATACATGCATTACAATTATGTAA [TGCATGCA_site220],6.75
22,TATTATAATACTTATTGTACTTTTAGGTTAATTTAT [XGTACX_site995],6.82

row,Sequence,gcPBM binding intensity (ln)
1,GTTGCACAATGTTACACACACAATATATATCGTTAA [CACACA_site1275],7.38
2,CCCTTTTTTTTTTAATGTACATATAATTATATATTT [XGTACX_site8568],7.3
3,GGAAACCTTTTTTTTACACACAATATATTAAGACTT [CACACA_site4899],6.93
4,AATTGTACGTAGGGGTATAAAAGCTTAAAAATGGGG [CACACA_negctrl_site1392],7.61
5,AAAGCAAAAGGAAAATAACCAACCCTAATTAACACA [CACACA_negctrl_site530],6.92
6,TTTGTTAAAAATATATTATGAATAAAAATATATTTT [CACACA_negctrl_site170],6.7
7,TTAAAACATAAAAAAAGTACATACAAATATATATAA [XGTACX_site789],7.07
8,TATGTCAATCAAGCAAGTACATATATATATAAATAT [XGTACX_site7554],7.01
9,TACAAAATAACTAGCACACATATGTATAAACATATA [CACACA_site5948],6.83
10,AATTATATTACGAAATGTACATATAATAATGTATAT [XGTACX_site4410],7.01
11,GCCATTGTACCATCCACACACATATATATATGTATA [CACACA_site2704],7.72
12,TTCAAAACTTAAAATCGTACAAGACAATTATTATAT [XGTACX_site6626],7.03
13,CTTTTAATATTAAGATGTACTTAGAATTTTTTTTTT [XGTACX_site8338],6.83
14,CATATATATTTATGTACACACATTAATAAAAAAAAA [CACACA_site5741],7.3
15,TTTTTTGTTATTGGCGTGCACATATCCATTTATAGT,9.96
16,ATATATATAAATAATTGTACTTAAAAAAAAAAAAGG [XGTACX_site6847],7.53
17,AACAGCATATCACATTTCTTCAAAAAAAAATAAAAT [CACACA_negctrl_site733],6.95
18,TGTAGAGCGCAAAGTAGTACTACAAATTATGGAGGG [XGTACX_site3022],7.27
19,TAAACACCCATATAAACACACATACATACATACATA [CACACA_site5383],7.19
20,GATTAATTTAAAAAATGTACATTTTATTGTATAACC [XGTACX_site5539],7.1
21,CCAAGAAACCAAAAAAGTACATACATGGTTATAATT [XGTACX_site4249],6.98
22,ACAATATGTATATATATATATATGCAAATGTATAAA [CACACA_negctrl_site53],7.22
